Not every entry of the source has a single result; some have several. Only these are listed. There may be further records. Values that stand side by side are repeated measurements (runs, samples, wells, individuals or studies).
System: 171881-019-R-J1-PDC tumor spheroid viability
Test: Anticancer human tumor 171881-019-R-J1-PDC patient-derived invasive breast carcinoma cell line growth inhibition [PI3K]
Details: spheroids with HUVEC and MSC; for viability, T/C: stronger effect = lower value; for IC50: compound alone
Text: Combinatorial screen of targeted agents with the PI3K inhibitors inavolisib, alpelisib, duvelisib, and copanlisib in multi-cell type tumor spheroids
A high-throughput screen of multi-cell type tumor spheroids was designed to identify active combinations of targeted small molecules and PI3K pathway inhibitors. Complex spheroids include a stromal component modeled by human endothelial cells (HUVEC) and fibroblasts modeled by human mesenchymal stem cells (MSCs). The concentration ranges selected for each drug and investigational agent were based upon clinically achievable concentrations if the clinical Cmax of the agent was known.
Compounds. The drugs and investigational agents: inavolisib (NSC800729), alpelisib (NSC765974), duvelisib (NSC772469), copanlisib (NSC816437), ipatasertib (NSC767898), afuresertib (NSC778305), talazoparib (NSC767125), sapanisertib (NSC764658), selumetinib (NSC741078), tovorafenib (DAY101, NSC766906), vemurafenib (NSC761431), ravoxertinib (NSC781343), sotorasib (NSC818433), MRTX1133 (NSC 836407), abemaciclib (NSC 768073), palbociclib (NSC758247), venetoclax (NSC 766270), SY5609 (NSC837396), enzalutamide (NSC755605), and darolutamide (NSC825331), were obtained from the National Cancer Institute (NCI) Developmental Therapeutics Program Chemical Repository. The FDA-approved anticancer drug set is available from the NCI Developmental Therapeutics Program. […] The stock solutions were prepared in dimethyl sulfoxide (DMSO, Sigma-Aldrich, St. Louis, MO, cat. D2650) at 800-fold the tested concentration and stored at -70 degrees C prior to their use. All drugs and investigational agents were tested over a range starting from a high concentration at or near the clinical Cmax and decreasing in half-log increments. If the clinical Cmax for an agent had not been determined, the highest concentration tested was 10 microM.
Cell Culture. All cells were maintained in an incubator at 37 degrees C and 5% CO2 with 95% humidity. The PDC lines were cultured according to standard operating procedures established by the NCI PDMR (https://pdmr.cancer.gov/sops/default.htm). All PDCs were thawed and cultured in Matrigel-coated flasks prepared with a working solution of 1X Ham's F-12 nutrient mix, without supplementation (Invitrogen, Waltham, MA, cat. 11765054), 100 U/mL penicillin-streptomycin (Invitrogen, cat. 15140122), and 2.5% Matrigel (Corning Inc., Corning, NY, cat. 354248) for the first three passages. The 354836-022-R-J1-PDC, 475296-252-R-J1-PDC, and 997726-040-R-J2-PDC lines were cultured in 6A media, which includes advanced DMEM/F-12 (Thermo Fisher Scientific, cat. 12634028), 10 mM HEPES (Thermo Fisher Scientific, cat. 15630080), 1X GlutaMAX supplement (Thermo Fisher Scientific, cat. 35050061), 0.1 mg/mL primocin (InvivoGen, San Diego, CA, cat. ant-pm-2), 10% defined fetal bovine serum, heat inactivated (HyClone Laboratories Inc., Logan, UT, cat. SH30070.03HI), 50% L-WRN conditioned media (ATCC, cat. CRL-3276), 1.25 mM N-Acetyl-L-cysteine (Sigma-Aldrich, cat. A9165), 10 mM nicotinamide (Sigma-Aldrich, cat. N0636), 1X B-27 supplement (Thermo Fisher Scientific, cat. 17504044), 1X N-2 supplement (Thermo Fisher Scientific, cat. 17502048), and 10 microM Y-27632 dihydrochloride (Tocris Bioscience, Bristol, United Kingdom, cat. 1254). The 624824-186-R-J2-PDC line was cultured in 6C/Colon 1B media, which includes all 6A media components plus 50 ng/mL human EGF recombinant protein (Thermo Fisher Scientific, cat. PHG0311). […]
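Further: spheroids exposed to compound for 7 days before viability read.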
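Wherever viability, T/C is given: 100% = DMSO vehicle-treated spheroids.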

IC50 | Compound | viability, T/C (compound alone 0.000316 µM) | viability, T/C (compound alone 0.316 µM) | viability, T/C (compound alone 10 µM)
– | CC(C)n1nc(-c2ccc3oc(N)nc3c2)c2c(N)ncnc21 | 69.5, 80.6, 103, 89.1% | – | –
– | CNC(=O)c1ccc(N2C(=S)N(c3ccc(C#N)c(C(F)(F)F)c3)C(=O)C2(C)C)cc1F | – | 99.9, 72.2, 79, 80.5% | –
8.14 µM, 9.67 µM, > 10 µM, 9.83 µM | C[C@@H](NC(=O)c1ncnc(N)c1Cl)c1ncc(C(=O)Nc2cc(C(F)(F)F)c(Cl)cn2)s1 | – | – | –
4.37 µM, 4.17 µM, 3.89 µM, > 10 µM | CC1(C)CCC(CN2CCN(c3ccc(C(=O)NS(=O)(=O)c4ccc(NCC5CCOCC5)c([N+](=O)[O-])c4)c(Oc4cnc5[nH]ccc5c4)c3)CC2)=C(c2ccc(Cl)cc2)C1 | – | 88.3, 96.6, 70.6, 76% | 16.9, 15.8, 13.7, 70.3%

Source: PubChem BioAssay AID1963986 (Molecular Pharmacology Branch, DTP, NCI, 2024)
